The list shows a part of the results. Binding of human antibodies (heavy:light variable regions, tested as scFv in one mRNA-display pool) to influenza hemagglutinin, with or without the stem antibody CR9114 bound first. Score = (mean enrichment − median) / interquartile range of that screen; higher = more enriched, 0 = typical non-binder. Active = above the paper's cut-off per screen: stems 28; unblocked H1 Solomon Islands 5, H1 Michigan 3, H3 5, H5 19, H7 2.85, both B 5; blocked 9, 7, H5 10, H7 10, B Phuket 10, B Lee 11.5. Scores are scaled within each screen and are no affinities; replicates correlate at about 0.6 to 0.9, and antibodies rare in the pool are noisier.
B1: 014-10-1G06 (protein)
chain 1: QVQLVESGGGVVQPGRSLRLSCAASGFTFNSYAMHWVRQAPGKGLEWVAVISYDETNKHFSDSVKGRFTISRDNSKNTLLLQMDSLRIEDTAVYYCAREASFAFFDIWGQGTMVTVSS
chain 2: EIVMTQSPATLSVSPGERATLSCRASQSLTINLAWYQQRPGQAPRLLIYGASTRATGIPARFSGSGSGTEFTLTISSLQSEDFAVYYCQQYHNWPPLTFGGGTKVEIK
B2: W85-3C05 (protein)
chain 1: EVQLVESGGGLVQPGGSLRLSCAASGFTVSSNYLSWVRQAPGKGLEWVSVIYGGGNTYYADSVKGRFTISRHNSKNTLYLQMNNLRAEDTAVYYCASHVLRFLEEGFDMWGQGTMVTVSS
chain 2: DIQMTQSPSSLSASVGDRVTITCRASQSISSYLNWYQQEPGKVPKLLIYSASSLHSGVPSRFSGSGSGTDFTLTISSLQPEDFATYYCQQTYSTSLTLGGGTKVEIK
B3: W85-1C11 (protein)
chain 1: EVQLVESGGGLVQPGGSLRLSCAASGFILSPYWMHWVRQAPGKGLVWVSRINSDGSNRNYADSVKGRFTISRDNAKNTLYLQMNSLRVEDTAVYYCARQGYYYDSSGYQDWFDPWGQGTLVTVSS
chain 2: SYELTQPPSVSVSPGQTARITCSGDALPKKYAYWYQQKSGQAPVLVIYEDTKRPSGIPQRFSGSSSGTMATLTISGAQVEDEADYYCYSTDSSGNHRVFVGGT
B4: 01.d.04 (protein)
chain 1: EVQLVESGGGVVQPGGSLRLSCAASGFTFSDYGIHWVRQAPAKGLEWVTFIRHDGNSEYFVDSVKGRFTVSRDNSKNTVYLQVNRLRPDDTAIYYCAKDAVWSGYYPTHSYFEYWGQGTLVPVSS
chain 2: DIQMTQVPVSLSASVGDRVTITCRASQGISNYLNWYQQKPGKAPKLLIYAISNLFSGVPSRFSGSESGTDFTLTISSLQPEDFATYYCQQTYTTPQTFGQGTKVEIK
B5: C2-3-F04 (protein)
chain 1: VQLVESGGGVVQPGRSLRLSCAASGFSFRDFSMHWVRQAPGMGLEWVTLISYDGTNTFYADSVKGRFTISRDNSKNTLFLQLNSLRTEDTAVYYCARDYRHGLIDFWGQGTLVTVSS
chain 2: DVVMTQSPLSLPVPLGQPASISCRSSDSLVSVDGNTYLNWFQQRPGQSPRRLIYQVSNRDSGVPERFSGSGSDTDFTLKISRVEAEDVGVYYCMQGTYWPPITFGQGTRLEIK
B6: C1-2B06 (protein)
chain 1: VQLQESGPGLVKPSETLSLTCSVSGDSISETIYYWGWIRQSQGKGLEWIGNVYYDASTYYNPSLKSRVTMSIDTSKNQFSLKVSSVTAADTAVYYCARVPDGYKYYYGMDVWGQGTTVTVSS
chain 2: EIVMTQSPATLSVSPGERVTLSCRASQGVSSKLAWYQQKRGQAPRLLIYGASTRATGIPARFSGSGSGTEFTLTISSLQSEDFAIYYCQQYYNWTPITFGQGTRLEIK
B7: C6-2-2C06 (protein)
chain 1: VQLLESGGGLVQPGGSLRLSCAASGFTFSFSAMSWIRQTPAKGLEWVAAISGNGGATFYTDSVKGRFTISRDNSKSTVHLQMHSLRAEDTAVYYCAKKSPNDYDHYWGQGALVTVSS
chain 2: DIQMTQSPSTLSSSVGDSVTITCRASQSISTYLAWYQQKPGKAPKVLIYQASILESGVPSRFSGSGSGTEFTLTISSLQPDDFATYYCQQYNSYSGTFGQGTKVEIK

These binders were tested against Influenza A H1N1 A/Michigan/45/2015 hemagglutinin ectodomain (assay: mRNA display binding score; higher = more enriched on the antigen). Details: antigen blocked with: 2 µM CR9114 IgG.
Experimental: (§1)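 A pool of natively paired antibodies, displayed as scFv on mRNA, was selected once on antigen-coated beads and sequenced before and after; two replicates.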

Row | Binder | mRNA display binding score
1 | B1 | inactive: 0.175
2 | B2 | inactive: 0.526
3 | B3 | inactive: -0.526
4 | B4 | inactive: 0.938
5 | B5 | inactive: 0.447
6 | B6 | inactive: -0.2
7 | B7 | inactive: 1.12

Same assay, conditions: antigen blocked with: nothing

Row | Binder | mRNA display binding score
8 | B1 | inactive: 2.28
9 | B2 | inactive: -0.653
10 | B3 | inactive: -0.513
11 | B4 | active: 3.14
12 | B5 | inactive: -0.0019
13 | B6 | inactive: 0.223
14 | B7 | inactive: -0.17

Each binder was assayed against Influenza A H1N1 A/Solomon Islands/3/2006 hemagglutinin ectodomain in the same assay as above. Details: antigen blocked with: 2 µM CR9114 IgG.
Experimental: as §1

Row | Binder | mRNA display binding score
15 | B1 | inactive: 0.737
16 | B2 | inactive: -0.487
17 | B3 | inactive: -0.368
18 | B4 | inactive: 1.36
19 | B5 | inactive: 0.0792
20 | B6 | inactive: -0.0883
21 | B7 | active: 39.6

Same assay, conditions: antigen blocked with: nothing

Row | Binder | mRNA display binding score
22 | B1 | inactive: 0.592
23 | B2 | inactive: -0.47
24 | B3 | inactive: -0.32
25 | B4 | inactive: 1.22
26 | B5 | inactive: -0.183
27 | B6 | inactive: -0.186
28 | B7 | active: 26.5

Each binder was assayed against Influenza A H3N2 A/Singapore/INFIMH-16-0019/2016 hemagglutinin ectodomain in the same assay as above. Details: antigen blocked with: nothing.
Experimental: as §1

Row | Binder | mRNA display binding score
29 | B1 | inactive: 1.19
30 | B2 | inactive: -0.556
31 | B3 | inactive: -0.481
32 | B4 | inactive: 1.55
33 | B5 | inactive: 1.27
34 | B6 | inactive: 1.06
35 | B7 | inactive: -0.504

These binders were tested against Influenza A H5N1 A/Qinghai/1A/2005 hemagglutinin ectodomain in the same assay as above. Details: antigen blocked with: 2 µM CR9114 IgG.
Experimental: as §1

Row | Binder | mRNA display binding score
36 | B1 | inactive: 0.75
37 | B2 | inactive: -0.516
38 | B3 | inactive: -0.915
39 | B4 | inactive: 1.59
40 | B5 | inactive: -0.389
41 | B6 | inactive: 0.179
42 | B7 | inactive: 0.242

Same assay, conditions: antigen blocked with: nothing

Row | Binder | mRNA display binding score
43 | B1 | inactive: 1.6
44 | B2 | inactive: -0.541
45 | B3 | inactive: -0.567
46 | B4 | inactive: 0.736
47 | B5 | inactive: 0.272
48 | B6 | inactive: 1.18
49 | B7 | inactive: -0.56

What follows are binders tested against Influenza A H7N9 A/Shanghai/2/2013 hemagglutinin ectodomain in the same assay as above. Details: antigen blocked with: 2 µM CR9114 IgG.
Experimental: as §1

Row | Binder | mRNA display binding score
50 | B1 | inactive: -0.736
51 | B2 | inactive: -1.48
52 | B3 | inactive: 0.279
53 | B4 | inactive: 1.13
54 | B5 | inactive: -0.0629
55 | B6 | inactive: 1.63
56 | B7 | inactive: 0.407

Same assay, conditions: antigen blocked with: nothing

Row | Binder | mRNA display binding score
57 | B1 | inactive: 2.27
58 | B2 | inactive: -0.777
59 | B3 | inactive: -0.418
60 | B4 | active: 3.18
61 | B5 | inactive: -0.036
62 | B6 | inactive: 0.673
63 | B7 | inactive: -0.241

These binders were tested against Influenza B/Lee/1940 hemagglutinin ectodomain in the same assay as above. Details: antigen blocked with: 2 µM CR9114 IgG.
Experimental: as §1

Row | Binder | mRNA display binding score
64 | B1 | inactive: 1.21
65 | B2 | inactive: 0.379
66 | B3 | inactive: 0.344
67 | B4 | inactive: -0.193
68 | B5 | inactive: -0.522
69 | B6 | inactive: 0.0764
70 | B7 | inactive: -1.62

Same assay, conditions: antigen blocked with: nothing

Row | Binder | mRNA display binding score
71 | B1 | inactive: 0.447
72 | B2 | inactive: -0.104
73 | B3 | inactive: -0.107
74 | B4 | inactive: -0.191
75 | B5 | inactive: -0.0816
76 | B6 | inactive: -0.145
77 | B7 | inactive: -0.051

These binders were tested against Influenza B/Phuket/3073/2013 hemagglutinin ectodomain in the same assay as above. Details: antigen blocked with: 2 µM CR9114 IgG.
Experimental: as §1

Row | Binder | mRNA display binding score
78 | B1 | inactive: 2
79 | B2 | inactive: -0.515
80 | B3 | inactive: -0.605
81 | B4 | inactive: 0.52
82 | B5 | inactive: -0.519
83 | B6 | active: 24.6
84 | B7 | inactive: 0.445

Same assay, conditions: antigen blocked with: nothing

Row | Binder | mRNA display binding score
85 | B1 | inactive: 0.676
86 | B2 | inactive: -0.416
87 | B3 | inactive: -0.123
88 | B4 | inactive: 0.732
89 | B5 | inactive: -0.269
90 | B6 | active: 36.3
91 | B7 | inactive: -0.302
